# The list shows a part of the results. The energies were worked out here from pooled read counts, against the library average; single values are noisy.
# Molecular target: T1, Pho4 (S. cerevisiae) (UniProt P07270)
# T1 sequence: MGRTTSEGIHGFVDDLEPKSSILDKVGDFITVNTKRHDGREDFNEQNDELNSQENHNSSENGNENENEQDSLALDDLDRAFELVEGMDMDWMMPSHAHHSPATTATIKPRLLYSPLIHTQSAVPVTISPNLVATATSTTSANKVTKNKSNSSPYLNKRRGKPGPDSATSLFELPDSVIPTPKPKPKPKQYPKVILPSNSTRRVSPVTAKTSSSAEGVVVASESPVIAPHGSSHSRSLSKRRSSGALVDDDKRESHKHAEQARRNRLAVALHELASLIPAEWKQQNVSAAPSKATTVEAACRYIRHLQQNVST
# Assay: relative binding free energy (BET-seq); higher = weaker binding
# Conditions: reference: library average
row,Sequence,relative binding free energy
1,TTTAACACGTGATCTG,0.11 kcal/mol
2,ATTTGCACGTGTTCTT,0.03 kcal/mol
3,GTTGACACGTGGCGAT,-0.02 kcal/mol
4,GTGTTCACGTGGGCGT,0.22 kcal/mol
5,ATGTTCACGTGAATGT,0.37 kcal/mol
6,ACATGCACGTGGGTTT,-0.21 kcal/mol
7,TATGTCACGTGACAAT,0.46 kcal/mol
8,ATGTTCACGTGGAGCA,0.31 kcal/mol
9,GTCTTCACGTGGGGTA,0.15 kcal/mol
10,TTTGCCACGTGTTGCG,-0.04 kcal/mol
11,GTTTACACGTGCTGGC,0.3 kcal/mol
12,TGGGTCACGTGAGGTG,0.36 kcal/mol
13,GAACTCACGTGGGATG,0.25 kcal/mol
14,CGTCTCACGTGGAGGT,0.17 kcal/mol
15,TCATACACGTGTTAGG,0 kcal/mol
16,ATGATCACGTGGAAGG,0.19 kcal/mol
17,AATTCCACGTGTGTGG,0.07 kcal/mol
18,TGAGACACGTGTTGTA,-0.02 kcal/mol
19,TAATTCACGTGGAGGC,0.19 kcal/mol
20,AAAATCACGTGTTTTG,0.19 kcal/mol
21,CGTGGCACGTGGGCTA,-0.24 kcal/mol
22,GGGGGCACGTGTGGCG,-0.05 kcal/mol
23,TAGAACACGTGAGGTA,0.33 kcal/mol
24,TTTGGCACGTGGAGGC,0.06 kcal/mol
25,GTTTCCACGTGTAGTG,0.03 kcal/mol
26,ATGCTCACGTGTTAAT,0.24 kcal/mol

row,Sequence,relative binding free energy
1,CGATTCACGTGCGTGT,0.22 kcal/mol
2,GCCTTCACGTGGTTGT,0.22 kcal/mol
3,GGCTTCACGTGACGTG,0.36 kcal/mol
4,GAGGGCACGTGTGGAT,-0.05 kcal/mol
5,GTTGACACGTGATGTC,0.32 kcal/mol
6,AGCGACACGTGGTGTT,-0.16 kcal/mol
7,TTATGCACGTGGTACG,-0.06 kcal/mol
8,ATGGGCACGTGTAGCG,-0.11 kcal/mol
9,TGCATCACGTGGGGTC,0.03 kcal/mol
10,AGAGTCACGTGTTATA,-0.01 kcal/mol
11,ATAGTCACGTGAGGTA,0.19 kcal/mol
12,AAGGGCACGTGAGTAA,0.16 kcal/mol
13,TTGTGCACGTGCAATG,-0.03 kcal/mol
14,GCGTGCACGTGGGATG,-0.23 kcal/mol
15,TGTTCCACGTGATGGT,0.2 kcal/mol
16,GGTCGCACGTGCGTGA,-0.03 kcal/mol
17,GGGTTCACGTGTGTTA,0.36 kcal/mol
18,CGGTGCACGTGAGAAG,0.19 kcal/mol
19,GGCCGCACGTGGGTGT,-0.24 kcal/mol
20,GCTTTCACGTGGAAGG,0.31 kcal/mol
21,CTAATCACGTGAGTTT,0.22 kcal/mol
22,TATGTCACGTGCTAGT,-0.01 kcal/mol
23,CGTGCCACGTGTGGTG,-0.17 kcal/mol
24,AGGAGCACGTGGTAGT,-0.13 kcal/mol
25,ATGGTCACGTGGTTGG,0.11 kcal/mol
26,CTGGGCACGTGGCGTA,-0.32 kcal/mol

row,Sequence,relative binding free energy
1,GGTCTCACGTGTTGTT,0.28 kcal/mol
2,TTGGTCACGTGCGCAT,-0.03 kcal/mol
3,ATAAGCACGTGATTTT,0.1 kcal/mol
4,GGAGTCACGTGAGTGC,0.37 kcal/mol
5,CGTGTCACGTGTCGAT,0.09 kcal/mol
6,GTGTTCACGTGTCAAT,0.39 kcal/mol
7,AGGACCACGTGTTGGT,-0.11 kcal/mol
8,AGATTCACGTGTAATT,0.33 kcal/mol
9,TGTATCACGTGGATGG,0.17 kcal/mol
10,AGCGTCACGTGTTGCT,0.14 kcal/mol
11,AGGGTCACGTGCGGCA,0.01 kcal/mol
12,TTTTCCACGTGTGCAA,0.26 kcal/mol
13,GGCGTCACGTGTGGGA,0.2 kcal/mol
14,TGTTTCACGTGTGTAC,0.18 kcal/mol
15,TGTTCCACGTGATGAG,0.18 kcal/mol
16,AAGGTCACGTGGAAGT,0.05 kcal/mol
17,TTCGCCACGTGTGTGT,-0.1 kcal/mol
18,AAAGGCACGTGTAAGG,-0.09 kcal/mol
19,TGAGGCACGTGTTAGC,-0.06 kcal/mol
20,TAAAGCACGTGTGGTG,-0.12 kcal/mol
21,ATATGCACGTGTAGTG,0 kcal/mol
22,ATATGCACGTGCTTGG,-0.19 kcal/mol
23,TGTTACACGTGGGCAT,0.03 kcal/mol
24,AAGATCACGTGTGTGT,0.16 kcal/mol
25,ATTGTCACGTGTTAGT,0.06 kcal/mol
26,CGTGACACGTGGGAGG,-0.19 kcal/mol

row,Sequence,relative binding free energy
1,GTGCACACGTGTAGTT,0.1 kcal/mol
2,TCTTTCACGTGCGATT,0.52 kcal/mol
3,TAACTCACGTGGTTGA,0.09 kcal/mol
4,GAAGGCACGTGTCGAG,0.08 kcal/mol
5,GTGATCACGTGATTTT,0.33 kcal/mol
6,TTCTGCACGTGGTAAT,-0.02 kcal/mol
7,TTCTTCACGTGTGCGT,0.29 kcal/mol
8,GAAGTCACGTGAGTAG,0.36 kcal/mol
9,CGGCACACGTGCGGGG,-0.02 kcal/mol
10,TAGTGCACGTGACGGC,0.17 kcal/mol
11,ACGGTCACGTGGTGAT,0.03 kcal/mol
12,GGGTTCACGTGGTTTC,0.24 kcal/mol
13,AGTTGCACGTGGTCCT,-0.03 kcal/mol
14,TATGACACGTGTATGA,0.06 kcal/mol
15,TATTGCACGTGGGGTT,-0.12 kcal/mol
16,AAGGTCACGTGGTGAC,0.05 kcal/mol
17,CGGGGCACGTGATAGG,-0.06 kcal/mol
18,TAGTTCACGTGCGCGG,0.17 kcal/mol
19,GTTATCACGTGGGTGT,0.1 kcal/mol
20,TGTTTCACGTGATAAT,0.27 kcal/mol
21,AAGCTCACGTGTGAGG,0.28 kcal/mol
22,TAGAGCACGTGGTTTA,0.03 kcal/mol
23,TATTACACGTGGCTTG,0.05 kcal/mol
24,TGGTTCACGTGTCCTG,0.29 kcal/mol
25,TGTGGCACGTGTCTAT,-0.13 kcal/mol
26,ATATCCACGTGTGTTG,0.08 kcal/mol

row,Sequence,relative binding free energy
1,ACGAGCACGTGTGGGT,-0.06 kcal/mol
2,GAGGGCACGTGTATAT,0.04 kcal/mol
3,TGTCGCACGTGTAATG,-0.1 kcal/mol
4,CTTTCCACGTGAGGGT,0.16 kcal/mol
5,AGGTCCACGTGTTTAT,0 kcal/mol
6,GGTTTCACGTGACTAT,0.44 kcal/mol
7,GTTTTCACGTGTCGAA,0.25 kcal/mol
8,GATATCACGTGATTGT,0.26 kcal/mol
9,TTTTGCACGTGTGATT,0.15 kcal/mol
10,TCCTTCACGTGTTGGG,0.23 kcal/mol
11,GTCATCACGTGAATGG,0.28 kcal/mol
12,GTGTGCACGTGATCGC,0.09 kcal/mol
13,ACGGGCACGTGATGTT,0.06 kcal/mol
14,TGAATCACGTGAAAGT,0.33 kcal/mol
15,TGGATCACGTGGATCG,0.24 kcal/mol
16,ATAGACACGTGGGTGA,-0.08 kcal/mol
17,GTGTCCACGTGAGAGG,0.24 kcal/mol
18,TATTGCACGTGGCTGT,-0.11 kcal/mol
19,TGATTCACGTGGAGTT,0.3 kcal/mol
20,TTGTCCACGTGAAGCG,0.43 kcal/mol
21,GGAGGCACGTGTGTTC,-0.17 kcal/mol
22,GAGTACACGTGAGTTA,0.25 kcal/mol
23,ATGGCCACGTGAAGTG,0.23 kcal/mol
24,TAGAGCACGTGGCGTG,-0.1 kcal/mol
25,GGGGTCACGTGCTATG,0.05 kcal/mol
26,ACTTTCACGTGGTGTT,0.26 kcal/mol

row,Sequence,relative binding free energy
1,TGGGTCACGTGACGGC,0.21 kcal/mol
2,TTATTCACGTGTGCAG,0.3 kcal/mol
3,AATGTCACGTGTAGAA,0.09 kcal/mol
4,TAGTGCACGTGTACAG,-0.01 kcal/mol
5,TGGTCCACGTGAATGT,0.14 kcal/mol
6,CGTAGCACGTGGGGGG,-0.31 kcal/mol
7,GATAGCACGTGCTGTG,-0.02 kcal/mol
8,TGGTTCACGTGTCTGG,0.26 kcal/mol
9,TGGTGCACGTGTCTGG,-0.05 kcal/mol
10,TCGTTCACGTGAATTG,0.33 kcal/mol
11,AGAGTCACGTGGTAAG,0.1 kcal/mol
12,GGGTTCACGTGTGAGG,0.38 kcal/mol
13,TTTGTCACGTGGGCAG,0.08 kcal/mol
14,GGTGTCACGTGGTGTG,0.14 kcal/mol
15,TGTTCCACGTGGAATG,0.13 kcal/mol
16,AAGTGCACGTGGTTAT,-0.04 kcal/mol
17,CGTGGCACGTGAGGTA,0.12 kcal/mol
18,TGGGTCACGTGTAGTT,0.14 kcal/mol
19,AATTTCACGTGTATAA,0.2 kcal/mol
20,TTCTGCACGTGATCGT,0.03 kcal/mol
21,TTGCGCACGTGGGGGT,-0.22 kcal/mol
22,GGATTCACGTGCTGGT,0.25 kcal/mol
23,GTGCCCACGTGGAGGG,-0.14 kcal/mol
24,GGATTCACGTGGTCTT,0.24 kcal/mol
25,ACGTTCACGTGATGTG,0.26 kcal/mol
26,TGTTACACGTGTCTGA,0.3 kcal/mol

row,Sequence,relative binding free energy
1,TTGATCACGTGATCAT,0.22 kcal/mol
2,GGGGGCACGTGCTATA,-0.07 kcal/mol
3,AAGGTCACGTGGTTTT,0.11 kcal/mol
4,TGTGGCACGTGTTATG,-0.11 kcal/mol
5,TAGTACACGTGGTGGT,0.05 kcal/mol
6,TGGTACACGTGAGGTT,0.4 kcal/mol
7,TATATCACGTGCAAGG,0.28 kcal/mol
8,CAAGTCACGTGGATGT,0.09 kcal/mol
9,GGGGCCACGTGTAGCT,0.03 kcal/mol
10,AATTTCACGTGTTTCG,0.17 kcal/mol
11,TATATCACGTGAGCGG,0.42 kcal/mol
12,TGCTGCACGTGGGCGA,-0.21 kcal/mol
13,GTAGCCACGTGCTGGG,-0.03 kcal/mol
14,GGAGGCACGTGATGAT,0.03 kcal/mol
15,CATATCACGTGGTTGG,-0.04 kcal/mol
16,ATTGTCACGTGAGTCG,0.26 kcal/mol
17,TTGAGCACGTGGTTAG,-0.18 kcal/mol
18,TGATTCACGTGTTTCG,0.17 kcal/mol
19,GTTGGCACGTGGTATC,-0.13 kcal/mol
20,AGTTGCACGTGATGGG,0.21 kcal/mol
21,GAGTTCACGTGTAAGA,0.43 kcal/mol
22,AGTAACACGTGGAGGC,0.11 kcal/mol
23,TGTGGCACGTGAATTG,0.03 kcal/mol
24,AATTGCACGTGTAGGT,0.01 kcal/mol
25,GGGATCACGTGGGGCA,0 kcal/mol
26,GATGGCACGTGAAGCG,0.26 kcal/mol

row,Sequence,relative binding free energy
1,CAAAGCACGTGTGTGT,-0.02 kcal/mol
2,TGAGTCACGTGGGTTG,0.02 kcal/mol
3,GGGCACACGTGTATGT,0.11 kcal/mol
4,GCGGGCACGTGTGGCG,-0.12 kcal/mol
5,TAGTGCACGTGATGCT,0.08 kcal/mol
6,AAAGGCACGTGGGATG,-0.14 kcal/mol
7,GATTTCACGTGGAGAA,0.46 kcal/mol
8,TGTGGCACGTGATTAG,0.02 kcal/mol
9,AATGGCACGTGAAGAG,0.2 kcal/mol
10,ATTTTCACGTGAGAAT,0.38 kcal/mol
11,ATCGGCACGTGGCGGT,-0.18 kcal/mol
12,TGCATCACGTGTCTGG,0.2 kcal/mol
13,TGCGACACGTGTTCGG,0.12 kcal/mol
14,ATGGTCACGTGGGTTT,0.01 kcal/mol
15,TGGTACACGTGTGCTT,-0.02 kcal/mol
16,TGTGGCACGTGTGAAT,0.02 kcal/mol
17,AGGTTCACGTGGCTGT,0.28 kcal/mol
18,TAGGCCACGTGGGTGA,-0.33 kcal/mol
19,CGTTCCACGTGTGGCG,0.17 kcal/mol
20,GCAATCACGTGGGGGA,0.03 kcal/mol
21,GGTTACACGTGTAAGC,0.32 kcal/mol
22,GCATTCACGTGGTTGT,0.26 kcal/mol
23,GCTGGCACGTGGGCGT,-0.06 kcal/mol
24,TTAATCACGTGAGTTA,0.37 kcal/mol
25,ATTAGCACGTGTTTAT,-0.12 kcal/mol
26,AGTTTCACGTGAGCTG,0.49 kcal/mol

row,Sequence,relative binding free energy
1,GACTGCACGTGGTTTG,-0.1 kcal/mol
2,CTGGACACGTGTTATG,0.03 kcal/mol
3,GCTGTCACGTGGGCTG,0 kcal/mol
4,ATATACACGTGCTGTG,-0.11 kcal/mol
5,TGTTTCACGTGTCTTA,0.3 kcal/mol
6,GTTAGCACGTGAAAGG,0.23 kcal/mol
7,CGCTGCACGTGTGGTG,-0.01 kcal/mol
8,GATTTCACGTGCTTTG,0.23 kcal/mol
9,TACTTCACGTGGGGGC,0.26 kcal/mol
10,GATAGCACGTGGGTAG,-0.15 kcal/mol
11,CTTTTCACGTGAGGGC,0.41 kcal/mol
12,AATGGCACGTGGCAGG,-0.1 kcal/mol
13,TATTCCACGTGTATAG,0.19 kcal/mol
14,GTTGGCACGTGTAGCT,-0.01 kcal/mol
15,ATGAGCACGTGCTGTT,-0.13 kcal/mol
16,ATCGGCACGTGCTAGG,0.02 kcal/mol
17,TATGACACGTGGCTGG,-0.16 kcal/mol
18,GTTCTCACGTGGGTAG,0.24 kcal/mol
19,TGTTTCACGTGATCTC,0.23 kcal/mol
20,GTCGTCACGTGTTGGG,0.17 kcal/mol
21,GCTTGCACGTGGTGCT,-0.08 kcal/mol
22,TTTTGCACGTGGGGAA,-0.07 kcal/mol

# Source: the BET-seq Pho4 binding data (Le et al. 2018)
